# Laboratory results published in the antibiotic and cytotoxicity screens of Wong et al. (2023).
# The other results are listed elsewhere or left out.
# Columns and labels:
# [1] = test system: HSkMC (human skeletal muscle cells); assay: cytotoxicity call (relative viability < 0.9); conditions: 10 µM
# [2] = test system: HepG2; assay: cytotoxicity call (relative viability < 0.9); conditions: 10 µM
# [3] = test system: S. aureus RN4220; assay: growth inhibition call (relative growth <= 0.2); conditions: 50 µM
SMILES,cytotoxicity call [1],cytotoxicity call [2],growth inhibition call [3]
COc1ccc(NC(=O)N(C)C[C@@H]2Oc3cc(C#CCN(C)C)ccc3S(=O)(=O)N([C@H](C)CO)C[C@H]2C)cc1,inactive,inactive,inactive
C[C@H](CO)N1C[C@H](C)[C@@H](CN(C)CC2CCCCC2)Oc2ccc(NS(=O)(=O)c3cn(C)cn3)cc2C1=O,inactive,inactive,inactive
CC(=O)OC[C@H]1OC[C@H](OC(C)=O)[C@@H](OC(C)=O)[C@H]1OC(C)=O,inactive,inactive,inactive
O=C1O[C@H](c2ccccc2)[C@H](c2ccccc2)N2[C@H]1[C@@H](C(=O)N1CCCCCCC1)[C@]1(C(=O)Nc3ccc(C#CCCO)cc31)[C@H]2c1ccc(OCCO)cc1,inactive,inactive,inactive
Cc1noc(C)c1NC(=O)N(C)C[C@@H]1OCCCC[C@@H](C)Oc2ccc(NC(=O)C3CCCCC3)cc2C(=O)N([C@H](C)CO)C[C@@H]1C,inactive,inactive,inactive
C[C@H](CO)N1C[C@H](C)[C@H](CN(C)C(=O)CCC(F)(F)F)OCCCC[C@H](C)Oc2ccc(NC(=O)C3CCCCC3)cc2C1=O,inactive,inactive,inactive
Cn1cnc(CCNC(=O)C[C@@H]2CC[C@@H]3[C@H](COC[C@H](O)CN3C(=O)Nc3ccc(Cl)cc3)O2)c1,inactive,inactive,inactive
CCCCCCOC(=O)N=C(N)c1ccc(NCc2nc3cc(C(=O)N(CCC(=O)OCC)c4ccccn4)ccc3n2C)cc1.CS(=O)(=O)O,inactive,inactive,inactive
NC(=O)[C@H]1CCCNC1,inactive,inactive,inactive
Oc1ccc(OCc2ccccc2)cc1,inactive,inactive,inactive
COc1ccc(S(=O)(=O)N(C)C[C@@H]2Oc3ccc(NC(=O)CCC(F)(F)F)cc3CC(=O)N([C@@H](C)CO)C[C@H]2C)cc1,inactive,inactive,inactive
O=C(C[C@@H]1CC[C@@H]2NC[C@@H](O)COC[C@H]2O1)NCCN1CCCC1,inactive,inactive,inactive
Cc1cccc2c3c(ccc12)C1=C(C(=O)C3=O)C(C)CO1 (configuration not stated),inactive,active,active
COc1ccc(S(=O)(=O)Nc2ccc3c(c2)C(=O)N([C@H](C)CO)C[C@@H](C)[C@H](CN(C)C(=O)Nc2c(C)noc2C)OCCCC[C@@H](C)O3)cc1,inactive,inactive,inactive
N[C@@H](CSSC[C@H](N)C(=O)O)C(=O)O,inactive,inactive,inactive
CN(C)c1cc(CN)ccn1,inactive,inactive,inactive
C[C@@H]1CN([C@@H](C)CO)C(=O)CCCn2cc(nn2)CO[C@@H]1CN(C)S(=O)(=O)c1ccc(C#N)cc1,inactive,inactive,inactive
COc1cc(/C=C/C(=O)N2CCC=CC2=O)cc(OC)c1OC(=O)CCCCCCCCCCC(=O)Oc1c(OC)cc(/C=C/C(=O)N2CCC=CC2=O)cc1OC,inactive,inactive,inactive
C[C@H](CO)N1C[C@H](C)[C@H](CN(C)Cc2ccc(-c3ccccc3)cc2)Oc2ccc(NC(=O)Nc3ccccc3)cc2C1=O,inactive,inactive,inactive
CCCNC(=O)Nc1ccc2c(c1)C(=O)N(C)C[C@@H](OC)[C@@H](C)CN(C(=O)C1CCOCC1)[C@H](C)CO2,inactive,inactive,inactive

SMILES,cytotoxicity call [1],cytotoxicity call [2],growth inhibition call [3]
C[C@H](CO)N1C[C@H](C)[C@H](CN(C)C(=O)Nc2ccccc2)Oc2c(NS(C)(=O)=O)cccc2C1=O,inactive,inactive,inactive
COCC#Cc1cnc2c(c1)C(=O)N([C@H](C)CO)C[C@H](C)[C@@H](CN(C)S(=O)(=O)c1cn(C)cn1)O2,inactive,inactive,inactive
C[C@@H]1CCCCO[C@H](CN(C)Cc2ccc(C(F)(F)F)cc2)[C@@H](C)CN([C@H](C)CO)C(=O)c2cc(NC(=O)Cc3ccccc3)ccc2O1,inactive,inactive,inactive
COc1ccccc1-c1ccc2n(c1=O)C[C@@H]1[C@@H](CO)[C@H](C(=O)NCC3CC3)N(S(C)(=O)=O)[C@H]21,inactive,inactive,inactive
C[C@@H]1CCCCO[C@H](CN(C)C(=O)Cc2ccccc2)[C@@H](C)CN([C@@H](C)CO)C(=O)c2cc(NS(=O)(=O)c3ccc(Cl)cc3)ccc2O1,inactive,inactive,inactive
C[C@H]1CN([C@@H](C)CO)C(=O)c2cc(NS(=O)(=O)c3ccccc3)ccc2O[C@@H]1CN(C)S(C)(=O)=O,inactive,active,inactive
CCCNC(=O)Nc1ccc2c(c1)OC[C@H](C)N(Cc1ccc(-c3ccccn3)cc1)C[C@H](C)[C@H](OC)CN(C)C2=O,inactive,inactive,inactive
COc1ccc(S(=O)(=O)Nc2cccc3c2O[C@H](CN(C)Cc2ccc(-c4ccccc4)cc2)[C@@H](C)CN([C@H](C)CO)C3=O)cc1,inactive,active,inactive
CCn1c2c(c3cc(C4CCCCC4)ccc31)CCCC2=O,inactive,inactive,inactive
C[C@@H]1CN([C@H](C)CO)C(=O)c2cc(NS(=O)(=O)c3ccc(Cl)cc3)ccc2O[C@@H]1CN(C)S(=O)(=O)c1cn(C)cn1,inactive,inactive,inactive
C[C@@H]1CN([C@@H](C)CO)C(=O)Cc2cc(NC(=O)Nc3ccc(F)cc3)ccc2O[C@@H]1CN(C)S(C)(=O)=O,inactive,inactive,inactive
C[C@H]1CN([C@@H](C)CO)C(=O)c2cc(C#CCN(C)C)cnc2O[C@@H]1CN(C)C(=O)CN1CCOCC1,inactive,inactive,inactive
Cc1ccc(S(=O)(=O)N(C)C[C@@H]2OCCCC[C@@H](C)Oc3ccc(NS(=O)(=O)c4ccc(Cl)cc4)cc3C(=O)N([C@H](C)CO)C[C@H]2C)cc1,inactive,inactive,inactive
CC(C)(C)[S@@](=O)N1Cc2cc(C(=O)NCc3ccccc3F)nc(-c3cccc(-c4ccncc4)c3)c2[C@H]1CCO,inactive,inactive,inactive
C[C@@H](NCCC(c1ccccc1)c1ccccc1)c1ccccc1,inactive,active,inactive
C[C@H]1CCCCO[C@H](CN(C)C(=O)Nc2ccc3c(c2)OCO3)[C@@H](C)CN([C@@H](C)CO)C(=O)c2cc(NC(=O)c3ccncc3)ccc2O1,inactive,inactive,inactive
C[C@@H]1CCCCO[C@H](CN(C)C(=O)Nc2ccc(C(F)(F)F)cc2)[C@@H](C)CN([C@H](C)CO)C(=O)c2cc(NS(=O)(=O)c3ccc(Cl)cc3)ccc2O1,inactive,inactive,inactive
CN(C)CC#Cc1ccc([C@H]2[C@H](CO)N3C(=O)CN(C(=O)c4cccnc4)C[C@@H]23)cc1,inactive,inactive,inactive
C[C@@H]1CN([C@@H](C)CO)C(=O)c2cccc(NC(=O)c3ccc(-c4nccs4)cc3)c2O[C@H]1CN(C)Cc1ccccc1,inactive,inactive,inactive
C[C@H]1CN([C@@H](C)CO)C(=O)c2cccc(NS(=O)(=O)c3ccccc3)c2O[C@@H]1CN(C)S(=O)(=O)c1ccccc1,inactive,inactive,inactive

SMILES,cytotoxicity call [1],cytotoxicity call [2],growth inhibition call [3]
COc1ccc2c3c([nH]c2c1)[C@@H](CO)N(C[C@]13CCN(CC1)Cc1ccccc1F)S(=O)(=O)c1cn(cn1)C,inactive,inactive,inactive
CSc1nc(C)cc(OCCO)n1,inactive,inactive,inactive
C[C@@H]1CCCCO[C@@H](CN(C)Cc2ccc(C(F)(F)F)cc2)[C@@H](C)CN([C@@H](C)CO)C(=O)c2cc(NS(=O)(=O)c3cn(C)cn3)ccc2O1,inactive,inactive,inactive
C[C@@H]1CCCCO[C@@H](CN(C)CC2CC2)[C@H](C)CN([C@@H](C)CO)C(=O)c2cc(NC(=O)Nc3ccc(F)cc3)ccc2O1,inactive,inactive,inactive
Clc1ccc2sc(Sc3ccccc3)nc2c1,inactive,inactive,inactive
C[C@H]1CN([C@@H](C)CO)C(=O)c2cc(NC(=O)CCCCCC(=O)Nc3ccccc3N)ccc2O[C@H]1CN(C)S(=O)(=O)c1cn(C)cn1,inactive,inactive,inactive
COc1ccc2c3c(n(c2c1)C)[C@@H](CO)N(C[C@]13CN(C1)C(=O)c1ccccn1)S(=O)(=O)c1ccc(cc1)C,inactive,inactive,inactive
COc1ccccc1C#Cc1cnc2c(c1)C(=O)N([C@H](C)CO)C[C@H](C)[C@@H](CN(C)C(=O)CC1CC1)O2,inactive,inactive,inactive
Cc1noc(C)c1S(=O)(=O)Nc1ccc2c(c1)CC(=O)N([C@H](C)CO)C[C@@H](C)[C@H](CN(C)S(=O)(=O)c1cn(C)cn1)O2,inactive,inactive,inactive
C[C@H]1CN([C@@H](C)CO)C(=O)c2cccc(NC(=O)Nc3ccc(F)cc3)c2O[C@@H]1CN(C)S(=O)(=O)c1cn(C)cn1,inactive,active,inactive
COc1ccc(CN(C)C[C@H]2OCCCC[C@H](C)Oc3ccc(NS(=O)(=O)c4cccs4)cc3C(=O)N([C@H](C)CO)C[C@H]2C)cc1,inactive,inactive,inactive
NNC(=O)CCCC[C@H]1SC[C@H]2NC(=O)N[C@H]21,inactive,inactive,inactive
C[C@@H]1CCCCO[C@@H](CN(C)C(=O)Cc2ccccc2)[C@H](C)CN([C@@H](C)CO)C(=O)c2cc(NC(=O)c3ccccc3)ccc2O1,inactive,inactive,inactive
NC(=O)C[n+]1cccc2ccccc21,inactive,inactive,inactive
NC(=O)c1nnc2ccc(Cl)cc2c1N,inactive,inactive,inactive
O=S(=O)([O-])CCS.[Na+],inactive,inactive,inactive
CC=C(C(=CC)c1ccc(O)cc1)c1ccc(O)cc1,inactive,inactive,active
NCC(=O)Nc1nccs1,inactive,inactive,inactive
C[C@H](CO)N1C[C@H](C)[C@H](CN(C)S(=O)(=O)c2ccccc2)Oc2ccc(NS(C)(=O)=O)cc2CC1=O,inactive,inactive,inactive
